No constants are given. Whether binding was seen depends on the method and setting. Some results given as binding are weak or reduced against the parent protein; the word gives no strength.
T1: MEI-P22 (Drosophila) (UniProt Q9VS36)
T1 sequence: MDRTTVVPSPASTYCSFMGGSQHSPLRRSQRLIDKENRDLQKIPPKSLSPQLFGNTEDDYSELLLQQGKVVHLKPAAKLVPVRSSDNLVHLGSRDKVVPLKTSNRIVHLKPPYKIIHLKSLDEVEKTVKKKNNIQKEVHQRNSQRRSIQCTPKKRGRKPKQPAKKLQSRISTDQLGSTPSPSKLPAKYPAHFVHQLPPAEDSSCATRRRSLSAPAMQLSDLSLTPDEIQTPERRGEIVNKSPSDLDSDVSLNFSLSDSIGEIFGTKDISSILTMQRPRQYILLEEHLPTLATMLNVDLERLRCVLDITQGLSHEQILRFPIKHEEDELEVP

T2: Narya (CG12200) (Drosophila melanogaster) (UniProt Q9VWI4)
T2 sequence: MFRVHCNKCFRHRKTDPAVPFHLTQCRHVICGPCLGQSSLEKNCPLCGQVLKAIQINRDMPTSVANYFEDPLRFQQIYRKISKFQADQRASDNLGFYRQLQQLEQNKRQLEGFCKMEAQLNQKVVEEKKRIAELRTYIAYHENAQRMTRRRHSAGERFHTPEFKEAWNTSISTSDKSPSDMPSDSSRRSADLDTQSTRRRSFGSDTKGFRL

T3: Nenya (CG31053) (Drosophila melanogaster) (UniProt Q8IMM9)
T3 sequence: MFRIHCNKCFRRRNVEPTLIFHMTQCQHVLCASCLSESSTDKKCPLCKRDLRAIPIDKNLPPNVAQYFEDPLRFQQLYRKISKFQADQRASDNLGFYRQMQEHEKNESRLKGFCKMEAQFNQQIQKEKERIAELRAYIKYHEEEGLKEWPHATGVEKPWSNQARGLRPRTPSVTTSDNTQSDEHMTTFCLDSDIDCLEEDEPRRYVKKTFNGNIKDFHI

T4: Vilya (Drosophila melanogaster) (UniProt O76908)
T4 sequence: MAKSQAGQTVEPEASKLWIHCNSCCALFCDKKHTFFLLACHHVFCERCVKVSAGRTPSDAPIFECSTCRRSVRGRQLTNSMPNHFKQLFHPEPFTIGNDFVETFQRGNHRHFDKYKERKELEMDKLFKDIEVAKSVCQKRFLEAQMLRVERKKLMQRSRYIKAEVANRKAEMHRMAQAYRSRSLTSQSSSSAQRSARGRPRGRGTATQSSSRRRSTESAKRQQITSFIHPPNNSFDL

B1: Narya (CG12200) (protein, UniProt Q9VWI4 1-211)
chain: T2 sequence
B2: Nenya (CG31053) (protein, UniProt Q8IMM9 1-219)
chain: T3 sequence
B3: Vilya (protein, UniProt O76908 1-237)
chain: T4 sequence

Legend:
Assay in all cases: two-hybrid; Matchmaker Gold Yeast Two-Hybrid System (Clontech), AH109 used in place of Y2Hgold, mated with Y187; pGBKT7 bait and pGADT7 prey vectors; six twofold dilutions of equal starting amounts plated on selection plates
[1] = molecular target: T1, MEI-P22 (Drosophila)
[2] = molecular target: T2, Narya (CG12200) (Drosophila melanogaster)
[3] = molecular target: T3, Nenya (CG31053) (Drosophila melanogaster)
[4] = molecular target: T4, Vilya (Drosophila melanogaster)

| Binder | binding [1] | binding [2] | binding [3] | binding [4] |
| --- | --- | --- | --- | --- |
| B1 | no binding | binds | binds | binds |
| B2 | no binding | binds | binds | binds |
| B3 |  | binds | binds | binds |

From article PMC6336347
